# ± gives the standard deviation of the averaged measurements. This is one part of the list.
# System: PfAP2-I AP2 domain 3 (GST-tagged)
# Assay: gcPBM binding intensity (ln(normalized median fluorescence intensity)); higher = stronger DNA binding
# Method in brief: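 DNA-binding domains from P. falciparum, fused to GST and produced in E. coli, were put on an Agilent 4 × 180k double-stranded probe array for 1 h in 1× PBS holding 1% milk, 0.2 mg/ml BSA, 0.5% salmon testes DNA and 0.03% Triton X-100. Probes were primer-extended, 36 bp long and drawn from intergenic genomic regions, with negative controls included. After Alexa488 anti-GST antibody detection and a 488 nm scan, binding intensity was set as the highest Masliner-normalised natural-log median intensity across replicate spots of either probe orientation.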
row,Sequence,gcPBM binding intensity (ln)
1,TGTATACCTTAATATACACACATACAGATATATATA [CACACA_site4860],7.78 ± 0.64
2,CGATTTTTTTTTTATTGTACTTGCTCGCATGCAATA [XGTACX_site4727],7.71 ± 0.59
3,TGTTTTATTTAGAAGGTGCACATTAATATTAAATAA,11.3 ± 0.45
4,ATATGCATTTTTATACGTACATATTTCTTTTCGTTA [XGTACX_site1497],8.23 ± 0.54
5,ACAAAAGGGGAATACACACACATATATAAATAAATA [CACACA_site7111],7.95 ± 0.45
6,CATATTTTTATGAGATGTACAATAAGAAATATGTAA [XGTACX_site2389],7.99 ± 0.54
7,TTTTTTTTTTTATATACTGGAAATATATTTAATTTA [GTGCAC_negctrl_site250],7.87 ± 0.61
8,TACAAAATAGTTTACACACACATATATATACATATA [CACACA_site2615],7.77 ± 0.37
9,TTTATTTTTATGGTCACACATATTTTTAAAACTATA [CACACA_site4372],7.82 ± 0.5
10,CACCCATAGAAACACACACACGCATAAAAAAAAAAA [CACACA_site1513],8.19 ± 0.7
11,TAAAAACAAAAATGCACACATAATAAGCATATGTAT [CACACA_site3469],8.54 ± 0.11
12,TATTCTAATATTTATACACACATAACTTTGATAAAT [CACACA_site6418],7.61 ± 0.54
13,TATATATAGCATATTTCACACACACCGAATGAATAT [CACACA_site9182],7.8 ± 0.45
14,ATTAATTATTGTAATTGTACATTTTATATATATCCA [XGTACX_site2105],7.7 ± 0.55
15,TTTCTTGGGAGACATGCATGTACCAGAACAAAATAA [TGCATGCA_site272],8.21 ± 0.61
16,TATATAAATAGACACACACACATATAAATATAAATA [CACACA_site6503],7.84 ± 0.46
17,TACCTAGGATTAAAGTGTCCACATAATTTAAATAAT [XGTACX_site6736],7.79 ± 0.44
18,TTCTTCTGTTTTATTACACACCATTTTGTGGATACA [CACACA_site5181],8.38 ± 0.71
19,TTTTTTATTATATAATTGTATATAAAATTATAATTT [GTGCAC_negctrl_site733],7.67 ± 0.47
20,TAACTTGAATGGATATGTACATATATATATATATAT [XGTACX_site5990],9.24 ± 0.12
21,AATAAACATATATACACACACAAAAAAAAAAACATA [CACACA_site424],7.67 ± 0.52
22,TAGATGTATGTACATACACACATATATAAATAAATA [CACACA_site1788],7.83 ± 0.51
23,ATTCATCTATTTTGTAGTACTAAATATATATCTACT [XGTACX_site8790],7.93 ± 0.73

row,Sequence,gcPBM binding intensity (ln)
1,GCGAAATATTATTATAGTATACAAATACTTCTATGA [CACACA_negctrl_site197],7.42 ± 0.52
2,GGTAAGTACGACTTGACACACATACCCATATATATA [CACACA_site4837],8.36 ± 1.1
3,ACAGTATCTGGTAGCTGTACGAGTCGTAGAGTGCAG [XGTACX_site2015],8.38 ± 0.33
4,GGTGTTAAAAAATACACACACAAAAAAAAAAAAAAA [CACACA_site138],7.95 ± 0.58
5,TTTTTTTAATTTGGTTGTACTTAAAAAAAAAACAGA [XGTACX_site5788],8.01 ± 0.16
6,ATTATTTTACTAAAAGATATTCCTTTTTTTTGTACT [CACACA_negctrl_site998],7.63 ± 0.69
7,ATATGGCTAAAAGTTGCACACACACTAATAAAAAAA [CACACA_site9082],8.68 ± 0.15
8,TATGTATTTATATTAACACACAAAAAAAAAAAAAAA [CACACA_site5070],8.22 ± 0.54
9,ATATGCCTAATAAAATGTACGTTTGTTTTATTTATT [XGTACX_site3833],7.83 ± 0.54
10,ATATATATATTTTGGTAGCACCTCCTTTTTTTTTTT,9.315 ± 0.092
11,TATAACAAGTTATAAAGTACAAATGTTGAATTTTAT [XGTACX_site4673],7.49 ± 0.59
12,TCGGGAGGGGGGAAGCGTACATATATAAAATTATTA [XGTACX_site4683],10.6 ± 0.53
13,TAAAAATTAATATAAACACACAAAAATTAATAAATA [CACACA_site381],7.61 ± 0.63
14,TATAGATACAGATACACACACACACCGACATATATA [CACACA_site5832],7.74 ± 0.38
15,GAATGTATATTCATGTATTTATTATTATTATTATTA [XGTACX_negctrl_site156],7.83 ± 0.61
16,ACTACTCCATTAAGTAGTACACAAAAAAAAAAAATA [XGTACX_site7031],7.92 ± 0.28
17,TTACAAATGTTTTACACACACATAATTGTATCAATT [CACACA_site6147],7.86 ± 0.4
18,TAATAAAACATATATACACACATTATAAATACATAT [CACACA_site5014],7.72 ± 0.63
19,TATAAATAAAAACACACACACATATATATATATATA [CACACA_site2319],9.45 ± 0.52
20,CCATTTTAAATATGCACACAGATGCACTAACCCATT [CACACA_site1883],10.345 ± 0.007
21,TAAAAAATAAAAAAAGCACACACATATATATATATA [CACACA_site8567],9.4 ± 0.25
22,AAAATAAGAAATTGAAAAATTGAAAACAAAATTAAA [CACACA_negctrl_site1285],7.37 ± 0.61
23,TACATGATATATCACACACACATATAAATATATATA [CACACA_site2831],7.92 ± 0.71

row,Sequence,gcPBM binding intensity (ln)
1,TTCACAAAATATTATTGTACATTAAAATATTTATAT [XGTACX_site2535],7.63 ± 0.42
2,TATAAAACGGATGAACAACAAATCATATGGCACAAA [TGCATGCA_negctrl_site608],10.2 ± 0.18
3,GAAAATTTCTTATTTTGTACACACAATAAATATTCA [XGTACX_site3267],7.71 ± 0.49
4,GTTTTTTTATTTCATCGTACAAAAAAGAAGGCTTTA [XGTACX_site5291],7.86 ± 0.49
5,TTATATATTTATTTATGTACATATTTTTTTATTATA [XGTACX_site6115],7.96 ± 0.26
6,TAAATATGTATTCATACATGCACATATATATATATA [TGCATGCA_site584],9.53 ± 0.33
7,ATATCCTTAAAAGATACACACATATGAATATTTTGT [CACACA_site3847],7.61 ± 0.42
8,TTTATACTTGTAAATGCACACATAAGATGCGACTAA [CACACA_site8662],9.51 ± 0.26
9,GTTTGTAAATATTTTACACACATATATATATATATA [CACACA_site1075],9.23 ± 0.5
10,ATTATAGACACGCGCACACACAACAAAAAAAAAAAA [CACACA_site9180],8.47 ± 0.59
11,TTGGGGTATCTTCCTATGCACACTTGTTATGTACTA [CACACA_site831],9.11 ± 0.38
12,ATACTTTTAAATTGATGTACTTTATTTATAAGGTGA [XGTACX_site6746],7.7 ± 0.3
13,TTGATTACTAGAAATGCACACACTGATAAAATAAGG [CACACA_site4134],8.95 ± 0.35
14,TTGCTCACAAGAAGCACACAAAAAAAGAAAAAAAAA [CACACA_site4047],8.12 ± 0.57
15,AATATATATATTAGAGTGCACATAATTATTTGCTAA,9.95 ± 0.028
16,TATGTCAAATATATATGTACACAAATATACTATTAA [XGTACX_site2643],7.62 ± 0.28
17,ATAATCACAAATAATTGTACATTTTGTTATATATAT [XGTACX_site7704],8.13 ± 0.62
18,AAAAATTTCATATTCACACACAAAAAAAAAAAATAT [CACACA_site1592],7.81 ± 0.68
19,TGATATATATATATATATATAACACACGCAAAAAAA [TGCATGCA_negctrl_site240],8.3 ± 0.81
20,TTTTTAATTTATTGTGTGCACACAACTATGAGTTTT,9.7 ± 0.31
21,ATATGATATATATTCGGTACACATATATATAAAGAG [XGTACX_site430],8.3 ± 0.42
22,ATTTAAATAATATTCACACACAAAATTATATTTTAA [CACACA_site219],7.63 ± 0.47
23,AAGTTTTCTTAAAATTGTACTTTTCAAAAATAATCT [XGTACX_site277],7.75 ± 0.4

row,Sequence,gcPBM binding intensity (ln)
1,AAAACTTGTCAGAATGGACACACGAATTAAAGGCCT [CACACA_site1215],7.54 ± 0.86
2,TTATTTTTTATTATGTGTACATAACATCGCGATACA [XGTACX_site4359],8.18 ± 0.59
3,GATTTAGTTATTTAAACATGCAATTTATATAGAATT [TGCATGCA_site47],7.82 ± 0.93
4,CAACATTCGTATATCACACATTTGCATGTTGTCAAT [CACACA_site4470],7.79 ± 0.66
5,TATTTATACATACATACACACATATAGATTTATATT [CACACA_site7851],7.91 ± 0.41
6,TCGTATATGGATTTTGCACACAATTATAATTTAAAT [CACACA_site868],9.26 ± 0.3
7,TATCCCTTAGAATACACACCCATATGAGCGTGAACT [CACACA_site2951],7.58 ± 0.53
8,TATATATTTTAAAATAGTACATATTATATAACCCAT [XGTACX_site2194],8.03 ± 0.45
9,ATATATATATATATATGTACACATTAATGTTTTTTT [XGTACX_site167],9.53 ± 0.81
10,TATTTTTTTTTTTAATGTACAAACAAATTATGTTGG [XGTACX_site2873],7.71 ± 0.45
11,ATTTTTTTTATGAGGTGTACTCATATAATAACTACA [XGTACX_site5074],8.25 ± 0.042
12,TTTTCTAAAGTAAGTTAAGATATGCAAAAAAAAGAA [GTGCAC_negctrl_site242],9.06 ± 0.25
13,AATAAAAATTGGTAGGCACACATGGAACTATTAAAA [CACACA_site1257],8.07 ± 0.79
14,TATAAAAGGTAAGAGTGTACAAGTAAAAAATTTTTA [XGTACX_site771],7.86 ± 0.61
15,ATGAACTATATTAAATCACACATTATCATTTTATAT [CACACA_site4989],7.71 ± 0.55
16,TTTTTATAAGCATAAAGTACAAATATTTTTTAGTTG [XGTACX_site4140],7.72 ± 0.21
17,TAAATCCGTTTGATGGGTACATACATACATACATAT [XGTACX_site8889],7.75 ± 0.52
18,AACACCCATGGACACACACACATATATATATATATA [CACACA_site5809],9.31 ± 0.23
19,ACAATAAAATATGGCACACATATATATATATATTTA [CACACA_site3],8.79 ± 0.18
20,ATTTATTTTAGTAAAGCACACGTGTAAAATATATCT [CACACA_site4820],9.455 ± 0.092
